# Laboratory results taken from a collection of fitness landscapes (doi:10.1126/science.1257360).
# The other results are listed elsewhere or left out.
# B1: PhoQ; a variant is named by its letters at X, in order, P23837 (parent)
# chain: MKKLLRLFFPLSLRVRFLLATAAVVLVLSLAYGMVALIGYSVSFDKTTFRLLRGESNLFYTLAKWENNKLHVELPENIDKQSPTMTLIYDENGQLLWAQRDVPWLMKMIQPDWLKSNGFHEIEADVNDTSLLLSGDHSIQQQLQEVREDDDDAEMTHSVAVNVYPATSRMPKLTIVVVDTIPVELKSSYMVWSWFIYVLSANLLLVIPLLWVAAWWSLRPIEALAKEVRELEEHNRELLNPATTRELTSLVRNLNRLLKSERERYDKYRTTLTDLTHSLKTPLXXLQXXLRSLRSEKMSVSDAEPVMLEQISRISQQIGYYLHRASMRGGTLLSRELHPVAPLLDNLTSALNKVYQRKGVNISLDISPEISFVGEQNDFVEVMGNVLDNACKYCLEFVEISARQTDEHLYIVVEDDGPGIPLSKREVIFDRGQRVDTLRPGQGVGLAVAREITEQYEGKIVAGESMLGGARMEVIFGRQHSAPKDE
# Variants of: B1
# Test: enrichment ratio after two sorts for PhoP signalling (ratio (wild type AVST 3.29)); higher = more functional
# Conditions: with PhoP (E. coli)
row,Variant,enrichment ratio
1,SRIA,0.34
2,MRLN,≤ 0.25
3,WFCG,≤ 0.25
4,MPVG,≤ 0.25
5,LHLV,≤ 0.25
6,TQFK,≤ 0.25
7,TTQL,5.72
8,FYKI,≤ 0.25
9,FHGS,≤ 0.25
10,NFSD,≤ 0.25
11,IRAF,≤ 0.25
12,SWIQ,≤ 0.25
13,ATLC,13.2
14,KNSM,≤ 0.25
15,IPVY,≤ 0.25
16,GIHG,≤ 0.25
17,VETY,0.319
18,LYAM,≤ 0.25
19,RAIE,≤ 0.25
20,FNPI,≤ 0.25
21,ALFD,≤ 0.25
22,WHFC,≤ 0.25
23,FHQN,≤ 0.25
24,VTIM,1.04
25,RSPR,≤ 0.25

row,Variant,enrichment ratio
1,IGID,≤ 0.25
2,LIMQ,≤ 0.25
3,QSTA,≤ 0.25
4,PCEF,≤ 0.25
5,FQQT,≤ 0.25
6,VSFE,≤ 0.25
7,YNRH,≤ 0.25
8,LGEW,≤ 0.25
9,KSVY,≤ 0.25
10,AGWR,≤ 0.25
11,IHGQ,≤ 0.25
12,HAFD,≤ 0.25
13,SITV,11.8
14,GCMP,≤ 0.25
15,INMH,≤ 0.25
16,YFWW,≤ 0.25
17,EFDT,≤ 0.25
18,YIPW,≤ 0.25
19,GPGD,≤ 0.25
20,KNDK,≤ 0.25
21,RPWE,≤ 0.25
22,KELT,≤ 0.25
23,DPRV,≤ 0.25
24,VQLV,1.23
25,KVYM,≤ 0.25

row,Variant,enrichment ratio
1,PDSS,≤ 0.25
2,IPYI,≤ 0.25
3,WFYV,≤ 0.25
4,ACLP,2.02
5,MGTP,≤ 0.25
6,YGLH,5.47
7,LATY,≤ 0.25
8,QIPV,≤ 0.25
9,EQCL,≤ 0.25
10,YSSY,≤ 0.25
11,RYQW,≤ 0.25
12,KGRS,≤ 0.25
13,FRWC,≤ 0.25
14,LENP,≤ 0.25
15,MPHN,≤ 0.25
16,LDEE,≤ 0.25
17,DNVS,≤ 0.25
18,AYEN,≤ 0.25
19,DHEQ,≤ 0.25
20,DDPY,≤ 0.25
21,VTHH,≤ 0.25
22,RPCA,≤ 0.25
23,AKHL,≤ 0.25
24,WENP,≤ 0.25
25,KNTW,≤ 0.25

row,Variant,enrichment ratio
1,FGNK,≤ 0.25
2,GNLY,3.04
3,HQWY,≤ 0.25
4,ACID,≤ 0.25
5,VCAM,5.59
6,WADP,≤ 0.25
7,YKLN,≤ 0.25
8,TMYQ,5.7
9,MDFP,≤ 0.25
10,VTTE,≤ 0.25
11,SSWF,≤ 0.25
12,QGSV,5.34
13,TQQK,≤ 0.25
14,LHLQ,≤ 0.25
15,VISV,≤ 0.25
16,VCCL,2.8
17,VGRV,≤ 0.25
18,FTQV,≤ 0.25
19,QLIF,≤ 0.25
20,YNMK,≤ 0.25
21,IGVD,≤ 0.25
22,WMII,≤ 0.25
23,GKIP,≤ 0.25
24,SMNH,2.63
25,PWQR,≤ 0.25

row,Variant,enrichment ratio
1,TEKH,≤ 0.25
2,QCVK,≤ 0.25
3,WEFT,≤ 0.25
4,ENML,≤ 0.25
5,QIFI,≤ 0.25
6,ITWW,≤ 0.25
7,DKPT,≤ 0.25
8,FNVV,≤ 0.25
9,LYLL,≤ 0.25
10,TGVS,4.39
11,HKGL,≤ 0.25
12,MQIH,≤ 0.25
13,TTSR,≤ 0.25
14,MACY,≤ 0.25
15,NAGQ,≤ 0.25
16,QLMI,≤ 0.25
17,ENVT,≤ 0.25
18,NCKR,≤ 0.25
19,VMWF,≤ 0.25
20,IVHC,≤ 0.25
21,QAPS,≤ 0.25
22,LFLK,≤ 0.25
23,MKGT,≤ 0.25
24,LPGC,≤ 0.25
25,PLAQ,≤ 0.25

row,Variant,enrichment ratio
1,AYPI,≤ 0.25
2,FLVD,≤ 0.25
3,KNWW,≤ 0.25
4,HDIL,0.461
5,DQQC,≤ 0.25
6,KVGN,≤ 0.25
7,LYNN,≤ 0.25
8,SRRH,≤ 0.25
9,TKVT,11.1
10,DRGS,≤ 0.25
11,FLNK,≤ 0.25
12,EHLC,≤ 0.25
13,MHSY,≤ 0.25
14,FPNG,≤ 0.25
15,WKHR,≤ 0.25
16,WTSL,≤ 0.25
17,PTLK,≤ 0.25
18,MGQD,≤ 0.25
19,GCPT,≤ 0.25
20,KPAG,≤ 0.25
21,WYSM,≤ 0.25
22,WPRL,≤ 0.25
23,TRYV,≤ 0.25
24,PPTE,≤ 0.25
25,NVLD,≤ 0.25

row,Variant,enrichment ratio
1,WDYG,≤ 0.25
2,SKID,≤ 0.25
3,DRNY,≤ 0.25
4,FEQE,≤ 0.25
5,DYMG,≤ 0.25
6,SACD,≤ 0.25
7,TRHD,≤ 0.25
8,YENC,≤ 0.25
9,IPHT,≤ 0.25
10,EMFP,≤ 0.25
11,SEEI,≤ 0.25
12,SRQR,≤ 0.25
13,HARG,≤ 0.25
14,LSKF,≤ 0.25
15,FNSN,≤ 0.25
16,MENE,≤ 0.25
17,AETE,8.78
18,PEQP,≤ 0.25
19,VNWL,≤ 0.25
20,FNVI,≤ 0.25
21,SDIQ,6.24
22,LSCK,≤ 0.25
23,LHLL,≤ 0.25
24,ASGM,22.7
25,GDLQ,≤ 0.25

row,Variant,enrichment ratio
1,MQAL,0.591
2,LCFR,≤ 0.25
3,EDSF,≤ 0.25
4,NGPM,≤ 0.25
5,QIGI,≤ 0.25
6,NMRC,≤ 0.25
7,EGMC,≤ 0.25
8,NYAH,≤ 0.25
9,YYAW,≤ 0.25
10,HMTK,≤ 0.25
11,SQFR,≤ 0.25
12,SKRD,≤ 0.25
13,FHIA,≤ 0.25
14,NHLD,≤ 0.25
15,YNVH,≤ 0.25
16,LPYD,≤ 0.25
17,TETS,13.7
18,IYRI,≤ 0.25
19,QFII,≤ 0.25
20,PCMK,≤ 0.25
